Drawing on PubChem BioAssay (NCI), this text covers GI50 and TGI for 1 compound.

This assay relates to HOP-92 NSCLC. As to the kind of experiment: DTP human tumour cell line panel, 48 h.

“And” between values parts separate entries of the source, which are not always exact repeats. Equal values may be shown once.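 Briefly, cells in 96-well plates were exposed to five compound concentrations for 48 h, and endpoints were estimated by linear interpolation. Here, GI50 denotes the concentration required for 50% inhibition of growth. At the TGI there is no net growth.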 The source made the active and inactive calls.

In the case of `C[C@@H]1C[C@H](N)C[C@H](c2ccncc2NC(=O)c2ccc(F)c(-c3c(F)cccc3F)n2)C1`, the GI50 entry was “inactive”; the TGI is 13.9 µM and 8.36 µM.

Broadly, the TGI is the concentration at which net growth stops.
